{"source": "ChEMBL document CHEMBL4888484", "about": "“Replenishing the malaria drug discovery pipeline: Screening and hit evaluation of the MMV Hit Generation Library 1 (HGL1) against asexual blood stage Plasmodium falciparum ,using a nano luciferase reporter read-out” (2022)", "note": "Out of some 150,000 compounds screened, about 540 (0.36%) showed an effect of 50% or more. The list shows a part of the results."}
{"tested_on": "Plasmodium falciparum", "assay": "Primary screen in NF54 nanoGlo assay, in single point, at 2uM, 72h; a lower Z score goes with more inhibition", "format": "functional, Erythrocyte", "conditions": "timepoint 72 hour", "units": {"% Inhibition": "%"}}
{"compound": "CCN1CCN(Cc2cc(C)cc(CN(C)CCn3ccnc3)c2C)CC1", "% Inhibition": -12, "Z score": 1.49}
{"compound": "COCCc1nc(-c2cc3nc(C)cc(C)n3n2)n(C2CCCCC2)n1", "% Inhibition": -6, "Z score": 0.85}
{"compound": "COc1ccc(-n2nc(C(=O)N3CCOCC3)c(=O)n(Cc3ccccc3Cl)c2=O)cc1OC", "% Inhibition": -5, "Z score": 0.72}
{"compound": "CCc1ccc(-c2cc(C(F)(F)F)on2)cc1S(=O)(=O)Nc1ccc(F)cc1", "% Inhibition": -9, "Z score": 1.46}
{"compound": "CCCN(CC(=O)Nc1cc(N2CCN(C(=O)NC(C)C)CC2)ccc1Cl)C(=O)c1ccccc1Cl", "% Inhibition": -5, "Z score": 0.83}
{"compound": "CCn1nnc(C)c1C(=O)N[C@H]1CC(C)(C)Oc2ccccc21", "% Inhibition": -6, "Z score": 0.73}
{"compound": "O=C(O)CCc1cc2n(n1)CCN(Cc1ccc3oc4ccccc4c3c1)C2", "% Inhibition": -11, "Z score": 1.87}
{"compound": "COC12NC(=O)N(C)C1(OC)C(=O)N(C)C(=O)N2C", "note": "(stereo not given)", "% Inhibition": -11, "Z score": 1.34}
{"compound": "Cc1ccccc1CN(C(=O)C1CCCC1)c1ccc(CC(=O)Nc2ccc(F)cc2)cc1", "% Inhibition": -11, "Z score": 1.51}
{"compound": "CC(=O)N1CCC(Oc2ccc(Cl)cc2C(=O)N(C)Cc2nccs2)CC1", "% Inhibition": -10, "Z score": 1.79}
{"compound": "CN=C(NCCC1=CCCCC1)N(C)C", "% Inhibition": -15, "Z score": 2.87}
{"compound": "O=C(Nc1ccc(-n2cc(Br)cn2)nc1)c1ccc2ncsc2c1", "% Inhibition": -14, "Z score": 1.83}
{"compound": "CCN1CCN(C(=O)CCc2ccc3ccccc3c2O)CC1=O", "% Inhibition": -11, "Z score": 1.82}
{"compound": "CC(C)c1[nH]ccc1C(=O)N[C@H]1COc2cc(F)c(Br)cc21", "% Inhibition": -3, "Z score": 0.4}
{"compound": "CCN(CC1CC1)c1nnc(-c2ccccn2)n1C[C@H]1CCOC1", "% Inhibition": -2, "Z score": 0.31}
{"compound": "Cn1cccc1C(=O)NC[C@H]1CCc2cccnc21", "% Inhibition": -4, "Z score": 0.47}
{"compound": "CCc1nc([C@@H]2CCCN2CCN2CCOCC2)no1", "% Inhibition": 6, "Z score": -0.76}
{"compound": "Cc1nnc(-c2nnc(NCC(C)C)c3ccccc23)o1", "% Inhibition": -14, "Z score": 1.61}
{"compound": "CCc1cc(C(=O)N2CC[C@@]3(CCCN(CC4CC4)C3=O)C2)on1", "% Inhibition": 7, "Z score": -1.23}
{"compound": "CC[C@H](NC(=O)c1cccn1C1CC1)c1ncccc1C", "% Inhibition": -3, "Z score": 0.38}
{"compound": "CC(=O)N(CCCN1CCOCC1)[C@H]1CCN(S(=O)(=O)c2ccc(F)c(F)c2)C1", "% Inhibition": 2, "Z score": -0.17}
{"compound": "CC(Cc1csc2ccccc12)NC(=O)C1CCOC1", "note": "(stereo not given)", "% Inhibition": -8, "Z score": 0.88}
{"compound": "CCn1cc(-c2ccncc2)cc1C(=O)NC1CCCCC1", "% Inhibition": -15, "Z score": 2.44}
{"compound": "Cc1cc(C(=O)NC2CC(C)(F)C2)co1", "note": "(stereo not given)", "% Inhibition": -5, "Z score": 0.58}
{"compound": "CN1C[C@@H](NS(=O)(=O)c2cccc3nsnc23)CC1=O", "% Inhibition": -4, "Z score": 0.51}
{"compound": "Cc1cc(NC(=O)[C@H](C)S(=O)(=O)Cc2ccc(F)cc2)no1", "% Inhibition": -2, "Z score": 0.14}
{"compound": "Cc1cccc(CN2CCC(F)(C(=O)N3CCCC3)CC2)c1", "% Inhibition": -3, "Z score": 0.57}
{"compound": "COC(=O)CC1(NS(=O)(=O)c2ccc(C(F)F)cc2)CCCC1", "% Inhibition": 3, "Z score": -0.4}
{"compound": "CC(C)[C@H](O)C(C)(C)CNC(=O)Nc1ccccc1-n1ccnn1", "% Inhibition": 11, "Z score": -1.1}
{"compound": "Cc1ccccc1-c1nnc(-c2ccc(-c3ccccc3)cc2)n1-c1ccccc1", "% Inhibition": 1, "Z score": -0.11}
{"compound": "CC(C)N1C[C@@H](NC(=O)c2cc(C(F)F)n(C)n2)CC1=O", "% Inhibition": 0, "Z score": 0.08}
{"compound": "Cc1cc(C)c2c(c1)CCCN2S(=O)(=O)c1cccc2cccnc12", "% Inhibition": 2, "Z score": -0.23}
{"compound": "COc1ccc(CNC(=O)c2[nH]c(C)c(S(=O)(=O)N3CCC(C)CC3)c2C)cc1", "% Inhibition": -18, "Z score": 2.37}
{"compound": "O=C(Nc1cccc(C(F)(F)F)c1)c1cnc(O[C@H]2CCOC2)c(Cl)c1", "% Inhibition": 4, "Z score": -0.68}
{"compound": "CC(C)[C@H](C)N(Cc1ccco1)C(=O)CCn1nnc2ccccc21", "% Inhibition": -4, "Z score": 0.48}
{"compound": "O=C(Cc1csc(NC(=O)c2ccco2)n1)Nc1ccc2c(c1)OCO2", "% Inhibition": -22, "Z score": 2.9}
{"compound": "COc1ccc(S(=O)(=O)Oc2cc(CN(C(=O)c3ccco3)C(C)C)ccc2OC)cc1", "% Inhibition": -2, "Z score": 0.36}
{"compound": "CO[C@H]1CCCOC12CCN(C(=O)c1ccc(-n3cnnc3)nc1)CC2", "% Inhibition": 0, "Z score": -0.05}
{"compound": "Cc1ccc(NC(=O)[C@@H]2CCCN2S(=O)(=O)c2ccc3c(c2)NC(=O)CO3)cc1F", "% Inhibition": -5, "Z score": 0.74}
{"compound": "CC[C@H](C)NC(=O)NCc1nc(C(=O)N2CCC(C)CC2)c(C)o1", "% Inhibition": -2, "Z score": 0.34}
{"compound": "CS(=O)(=O)c1ccc(NC(=O)c2cc(O)ncn2)cc1", "% Inhibition": 1, "Z score": -0.18}
{"compound": "Cc1cccc(C[C@H](C)NC(=O)C(=O)c2cccnc2)n1", "% Inhibition": -11, "Z score": 2.23}
{"compound": "CC1=NN=C(c2ccccc2)Cc2c1c(C)n(Cc1ccccc1)c2-c1ccccc1", "% Inhibition": 31, "Z score": -3.46}
{"compound": "CNC(=O)[C@@H]1CCCN1C(=O)CNC(=O)c1cc(C)nc(OC)c1", "% Inhibition": -14, "Z score": 1.31}
{"compound": "CCOc1cc(NCc2nnc3ccccn23)ncn1", "% Inhibition": -10, "Z score": 1.03}
{"compound": "C[C@H]1CCc2onc(C(=O)N3CCN(c4ccc(F)cc4)CC3)c2C1", "% Inhibition": -17, "Z score": 3.16}
{"compound": "COc1ccc2nc(NCc3cc(C#CCO)cs3)sc2c1", "% Inhibition": -11, "Z score": 1.39}
{"compound": "Cc1cc(C(=O)CN2CCC[C@H](C(=O)NCC(F)(F)F)C2)c(C)[nH]1", "% Inhibition": -4, "Z score": 0.37}
{"compound": "CCc1nc(CN(CC#N)S(=O)(=O)N(C)C)no1", "% Inhibition": -7, "Z score": 1.4}
{"compound": "CC(C)(C)c1nc(CS(C)(=O)=O)no1", "% Inhibition": 3, "Z score": -0.66}
{"compound": "COc1ccc(F)cc1S(=O)(=O)N1Cc2cnc(N3CCOCC3)nc2C1", "% Inhibition": -15, "Z score": 2.77}
{"compound": "CCC1Oc2cc(S(=O)(=O)N3CCCC(C(=O)N4CCC(C)CC4)C3)c(C)cc2NC1=O", "note": "(stereo not given)", "% Inhibition": 3, "Z score": -0.59}
{"compound": "CNC(=O)c1noc(CNC2CCN(c3ccc4c(c3)CCC4)CC2)n1", "% Inhibition": -2, "Z score": 0.36}
{"compound": "CCCNC(=O)N1CCC(O)(c2csc(CN3CCc4ccccc4C3)n2)CC1", "% Inhibition": 28, "Z score": -3.21}
{"compound": "O=C1CN(Cc2ccc3c(c2)OCO3)[C@H]2CS(=O)(=O)C[C@H]2N1c1ccc(Cl)cc1", "% Inhibition": 1, "Z score": -0.15}
{"compound": "O=C(Nc1cc(Br)cc(C(F)(F)F)c1)c1ccnnc1", "% Inhibition": -2, "Z score": 0.3}
{"compound": "FC(F)(F)c1nccc(OCc2noc(C3CC3)n2)n1", "% Inhibition": -9, "Z score": 1.25}
{"compound": "CC(C)n1nccc1CN1C(=O)c2ccccc2C1=O", "% Inhibition": -4, "Z score": 0.64}
{"compound": "O=C(Nc1cccc2[nH]cnc12)c1ccc(F)cc1F", "% Inhibition": -7, "Z score": 1.36}
{"compound": "O=C(NCc1ccccc1)N1CCC[C@H](Cn2cnc3cccnc32)C1", "% Inhibition": -12, "Z score": 1.77}
{"compound": "Cc1ccc([C@@H](C)NC(=O)Nc2cn(C)nn2)cc1F", "% Inhibition": 1, "Z score": -0.23}
{"compound": "CCN1CC(=O)N[C@H]2CN(C(=O)CCn3cccn3)CC[C@@H]2OCc2cccc(c2)Oc2cc(OC(C)C)cc(c2)C1=O", "% Inhibition": 6, "Z score": -0.85}
{"compound": "CCCCOC1CC(N(C)C(=O)c2snnc2C)C1(C)C", "note": "(stereo not given)", "% Inhibition": -13, "Z score": 2.43}
{"compound": "O=C(COc1ccc(Cl)cc1Cl)N1CC(c2nc(-c3cccnc3)no2)C1", "% Inhibition": 9, "Z score": -1.63}
{"compound": "O=C(NCc1ccc2c(c1)OCO2)c1cnccn1", "% Inhibition": -10, "Z score": 1.23}
{"compound": "O=C(Nc1ccc(Br)cc1)c1cccn2c(-c3ccc(F)cc3)nnc12", "% Inhibition": -4, "Z score": 0.58}
{"compound": "Cc1cc(C)c(C(=O)O)c(OC2CCC2)n1", "% Inhibition": -5, "Z score": 0.57}
{"compound": "Cc1nc(C(=O)NCCc2nccs2)c(-c2ccccc2Cl)s1", "% Inhibition": -2, "Z score": 0.36}
{"compound": "O=C(CN1CCCCCC1=O)N1CCCCC1", "% Inhibition": -5, "Z score": 0.67}
{"compound": "O=C(Cc1ccc(Cl)cc1Cl)N1CC[S+]([O-])CC1", "% Inhibition": 2, "Z score": -0.29}
{"compound": "CCN(CC)CCOCCOc1ccc(Br)cc1C", "% Inhibition": -2, "Z score": 0.33}
{"compound": "O=C(Cc1ccc(F)cc1)NC1CCCCCCC1", "% Inhibition": -2, "Z score": 0.34}
{"compound": "COC(=O)N1CCn2nc(CN(C)Cc3nc4ccc(F)cc4[nH]3)cc2C1", "% Inhibition": 1, "Z score": -0.17}
{"compound": "Cc1cccc(-c2nc3ccccc3o2)c1OS(=O)(=O)c1ccc(F)cc1", "% Inhibition": -4, "Z score": 0.52}
{"compound": "Cc1ccc(-c2nc(NC(=O)c3cc(C)on3)sc2C)cc1", "% Inhibition": 1, "Z score": -0.14}
{"compound": "Cc1cnc(C)n1C[C@H]1CCN(S(=O)(=O)c2ccccc2)C1", "% Inhibition": -3, "Z score": 0.44}
{"compound": "Cc1cc(-c2ccccc2)nc(CN2CCS(=O)(=O)CC2)n1", "% Inhibition": -2, "Z score": 0.35}
{"compound": "NCCC(=O)N(Cc1ccccc1OC(F)(F)F)C1CCCC1", "% Inhibition": 10, "Z score": -1.18}
{"compound": "O=C(N[C@H]1CC(=O)N(CC2CCCCC2)C1)c1ccsc1", "% Inhibition": -14, "Z score": 1.79}
{"compound": "Cc1noc(C)c1C(=O)Nc1sc(-c2ccccc2)c(C)c1C(=O)N1CCOCC1", "% Inhibition": -12, "Z score": 1.7}
{"compound": "COc1ccc(CNC(=O)N2CC[C@H](CC(=O)N(C)Cc3ccccc3)C2)cc1", "% Inhibition": -9, "Z score": 1.37}
{"compound": "CC[C@@H](C(=O)N(CC)Cc1ccc(C)o1)n1cccn1", "% Inhibition": 1, "Z score": -0.13}
{"compound": "COCCN1C[C@@H](Cc2cc(C)c3ccc(C)c(C)c3n2)CC1=O", "% Inhibition": -12, "Z score": 1.28}
{"compound": "Cc1cccc(OCC(=O)N2CCC(CN3C[C@@H](COc4cnccn4)CC3=O)CC2)c1", "% Inhibition": -13, "Z score": 2.56}
{"compound": "O=C(c1c[nH]cn1)N1CC[C@@]2(CCCN(CCCc3ccccc3)C2)C1", "% Inhibition": 1, "Z score": -0.26}
